# Results taken from the BET-seq Pho4 binding data (Le et al. 2018).
# The list shows a part of the results. The energies were worked out here from pooled read counts, against the library average; single values are noisy.
# Molecular target: T1, Pho4 (S. cerevisiae) (UniProt P07270)
# T1 sequence: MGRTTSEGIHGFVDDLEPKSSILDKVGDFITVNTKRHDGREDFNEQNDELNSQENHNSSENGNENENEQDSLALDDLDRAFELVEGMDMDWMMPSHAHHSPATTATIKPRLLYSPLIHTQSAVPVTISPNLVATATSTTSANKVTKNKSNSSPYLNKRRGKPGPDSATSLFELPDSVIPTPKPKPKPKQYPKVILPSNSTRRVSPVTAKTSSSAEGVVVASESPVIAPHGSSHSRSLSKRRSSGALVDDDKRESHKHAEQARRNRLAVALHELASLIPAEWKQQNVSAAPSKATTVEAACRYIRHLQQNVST
# Assay: relative binding free energy (BET-seq); higher = weaker binding
# Details: reference: library average
row,Sequence,relative binding free energy [kcal/mol]
1,GTTGACACGTGGCGCG,-0.02
2,AGCGGCACGTGCGGTT,-0.15
3,CTGGGCACGTGCTGTT,-0.14
4,TATTTCACGTGCGTGG,0.24
5,TTAGGCACGTGTGCTG,-0.1
6,TCACTCACGTGTGGGT,0.08
7,AGAGGCACGTGGGGTT,-0.21
8,TTGATCACGTGGTAAA,0.07
9,GTCGGCACGTGGAGTG,0.01
10,GCGCACACGTGGTGGT,-0.01
11,GGTTTCACGTGGCTCG,0.26
12,TCTTTCACGTGTTGGA,0.29
13,TTAGGCACGTGATAAG,-0.07
14,TATTACACGTGTATTT,-0.07
15,GGTCACACGTGTTGGA,0.08
16,GGGCGCACGTGGGTGA,-0.2
17,CGGTACACGTGAGAGG,0.17
18,TATCGCACGTGGGTCG,-0.18
19,GTAGACACGTGCGGTT,-0.07
20,AAAGTCACGTGATGAT,0.11
21,CTAGTCACGTGGCGGG,0.07
22,ATATTCACGTGTAGGC,0.19
23,ATTTTCACGTGCGGGA,0.29
24,GTGGGCACGTGGTTGG,-0.01
25,AGGGGCACGTGAAAGC,0.05
26,TGCTTCACGTGGTGGG,0.18

row,Sequence,relative binding free energy [kcal/mol]
1,TGACTCACGTGGTGTA,0.12
2,TTTTGCACGTGGCATA,-0.13
3,TGTGACACGTGGCCGT,-0.1
4,TGATGCACGTGTGTTT,0.13
5,ACTGTCACGTGGGGAT,-0.17
6,ATACTCACGTGGGCTT,0.12
7,GGGGACACGTGGTGGT,-0.01
8,GGTTTCACGTGGTTTG,0.27
9,TTGATCACGTGATGAG,0.16
10,TTACGCACGTGTTTGT,-0.11
11,AATTCCACGTGGGGTA,-0.06
12,TGTATCACGTGGTTGC,0.07
13,TCCGTCACGTGGGGGC,-0.06
14,TAGGGCACGTGCATTG,-0.13
15,AGTTGCACGTGAACGG,0.01
16,GGATGCACGTGGTGTG,-0.08
17,ATTGTCACGTGGGAGC,-0.05
18,TGGCCCACGTGGTGTG,-0.17
19,CATCGCACGTGGTGTT,-0.26
20,TGGTTCACGTGCTAGA,0.3
21,AAAAGCACGTGGGGCT,-0.16
22,TACTTCACGTGTGTCT,0.29
23,ACTTACACGTGTGGGG,0.22
24,TTTTCCACGTGGGTCT,-0.05
25,GATAACACGTGTTGTT,0.01
26,GGATTCACGTGGTCAT,0.25

row,Sequence,relative binding free energy [kcal/mol]
1,TGGTGCACGTGTGGGG,0.09
2,ATGGACACGTGTGGCT,-0.09
3,TATGCCACGTGTTGAT,0.01
4,TGGAGCACGTGGTGAT,0.01
5,TGTTGCACGTGCTTCG,0.01
6,CTCTACACGTGTGGGT,0.19
7,ATGAGCACGTGGGGAA,-0.2
8,TTTATCACGTGGGAAC,0.28
9,AAGGTCACGTGTTTGA,0.14
10,CGTGTCACGTGTTCTT,0.01
11,CATGGCACGTGGTGTT,-0.14
12,GCAATCACGTGATGGG,0.21
13,TAGCGCACGTGGATAG,-0.04
14,TCGTTCACGTGTTGGA,0.33
15,GTAGGCACGTGTGCAG,-0.09
16,TAAGGCACGTGGTTTA,-0.13
17,TAGAGCACGTGTAGGT,-0.14
18,GTAATCACGTGTGGCT,0.23
19,TGCAGCACGTGGTTGT,-0.16
20,ATTTCCACGTGGGAGT,0.09
21,ACGGTCACGTGTGTTT,0.09
22,GGTGTCACGTGTTGGA,0.19
23,GTGGGCACGTGTAGAA,0.06
24,TAAGGCACGTGTATAT,-0.11
25,CGCTTCACGTGGGTGG,0.02
26,TTTCTCACGTGTTGGT,0.2

row,Sequence,relative binding free energy [kcal/mol]
1,CGTGACACGTGAGAGT,0.22
2,CGGTGCACGTGGCATG,-0.13
3,TTGGTCACGTGTGCTC,0.16
4,TTAAACACGTGTTATG,0.1
5,TTCTACACGTGATGTA,0.2
6,ATATGCACGTGAAAGG,0.24
7,ATTGGCACGTGTTATT,-0.06
8,TCTGGCACGTGATGTG,0.07
9,TGGTACACGTGAGGGT,0.27
10,ATATACACGTGTTCGG,-0.03
11,GTCGTCACGTGATGGT,0.35
12,ATTGGCACGTGCTGGC,-0.18
13,GTTGCCACGTGCGTTG,-0.18
14,TAAATCACGTGGTATA,0.1
15,ATTGTCACGTGTTGGT,0.13
16,GGGTTCACGTGTCGGG,0.46
17,CGTGGCACGTGTATGC,-0.03
18,TGCATCACGTGGGGTG,0
19,ATGGGCACGTGGCTGG,-0.12
20,TGGTTCACGTGCTAAA,0.34
21,AGGGGCACGTGGAGTA,-0.15
22,TCGAGCACGTGGGCGG,-0.15
23,TGGGCCACGTGGCAGG,-0.22
24,CTGAGCACGTGGTTGA,-0.17
25,CTTGACACGTGGGTGT,-0.14
26,AAAGGCACGTGTATGG,-0.1

row,Sequence,relative binding free energy [kcal/mol]
1,TCCGGCACGTGGGTGA,-0.2
2,TTTGCCACGTGTGGAA,0.1
3,AGTCTCACGTGGTATT,0.25
4,GTCCTCACGTGGATGG,0.31
5,AGGTGCACGTGCTTTA,-0.09
6,AAGGGCACGTGGAGGT,-0.22
7,AGGGGCACGTGGGAAT,-0.07
8,GGTTACACGTGTGGGG,0.18
9,GAGTTCACGTGCGTAT,0.33
10,AGCGGCACGTGGGCAA,-0.18
11,CTTTTCACGTGTGGGT,0.27
12,GGGGGCACGTGGCGTG,-0.13
13,TGGGGCACGTGGGGCA,-0.23
14,GTGGACACGTGGTTCG,0.07
15,AAACGCACGTGGTTGT,-0.2
16,CGGTTCACGTGGGGGC,0.24
17,TGTAGCACGTGATGAT,0.2
18,TGTATCACGTGTGTTC,0.17
19,GGAATCACGTGTGTGG,0.16
20,TTCGGCACGTGTTGCG,-0.07
21,TGACTCACGTGTGGTT,0.18
22,TTTAGCACGTGTAGGG,-0.01
23,TAATTCACGTGGGGGA,0.08
24,TTAAACACGTGGGCAT,-0.03
25,ATGCGCACGTGTTGGG,-0.13
26,GTTATCACGTGTACAT,0.22

row,Sequence,relative binding free energy [kcal/mol]
1,GAGGTCACGTGGCGGG,0.23
2,ATGAACACGTGTGAGG,0.11
3,AGTGCCACGTGTGTAG,-0.24
4,TGAATCACGTGTACTT,0.18
5,GATGACACGTGGTGAT,0.12
6,ATGTGCACGTGGAATA,-0.05
7,CGTTTCACGTGAGTGG,0.21
8,GAGGGCACGTGAGAGC,0.26
9,GGTCGCACGTGCTTTT,0.02
10,AATTACACGTGTGAGA,0.18
11,ATGTGCACGTGAGTCG,0.11
12,CTGGTCACGTGCCGTG,0.11
13,GTGGCCACGTGGGTCG,-0.05
14,AGGCGCACGTGCGTGT,-0.13
15,CGGTTCACGTGAAAGT,0.44
16,TGTGGCACGTGAAGTT,0.22
17,TAGGCCACGTGTGGGC,-0.16
18,ATAGACACGTGGTCTG,-0.08
19,TATGCCACGTGCGGTG,-0.15
20,TTGAACACGTGGTCGT,-0.24
21,GGTCTCACGTGGTTGA,0.1
22,CTGTGCACGTGAGCGT,0.03
23,GCTGACACGTGGGGGG,0.02
24,GGGTGCACGTGTCAAT,-0.02
25,GGGGACACGTGGTCGC,0.03
26,GTTTTCACGTGGTGGT,0.3

row,Sequence,relative binding free energy [kcal/mol]
1,TGTGACACGTGATGAT,0.24
2,TTGTTCACGTGGTTGA,0.24
3,TTTTTCACGTGAAGGC,0.19
4,CGTAACACGTGTGGGG,0.08
5,CCGGACACGTGATGGG,0.22
6,TTTGCCACGTGGAGGA,0.02
7,AGTTTCACGTGACGGT,0.4
8,GTTTACACGTGTGCTG,0.16
9,TGGGGCACGTGTCTGA,-0.14
10,CTGGCCACGTGGGGTT,-0.22
11,TTGGACACGTGTCGAT,0.18
12,AGGAGCACGTGTAGCT,-0.02
13,TATGTCACGTGAAAAG,0.08
14,GGGACCACGTGTAGTT,0.01
15,GTGAACACGTGAGGCT,0.32
16,AGTCGCACGTGTAGGT,0.03
17,TGCAACACGTGGGTGT,-0.1
18,GGGGCCACGTGAGGTA,0.13
19,CGGGACACGTGCGGGT,0.03
20,GTTGTCACGTGGGTCG,-0.01
21,CGGTTCACGTGAGTAG,0.27
22,ACTGGCACGTGACGGG,-0.09
23,GTGGTCACGTGGCGCG,0.03
24,TGGCTCACGTGGGATG,0.02
25,GGTGTCACGTGGGGTG,0.07
26,TGGTACACGTGTTGGG,0.14

row,Sequence,relative binding free energy [kcal/mol]
1,ATGTACACGTGTTATA,0.04
2,GGTGGCACGTGATGAA,-0.05
3,TATCGCACGTGAGGTA,0.16
4,GAGCGCACGTGTGTCG,0.11
5,ACTGTCACGTGATTGT,0.16
6,TTGATCACGTGGTTTT,0.07
7,TGTTGCACGTGATCCT,0.16
8,TAGCACACGTGTGGGA,0.21
9,CTGTGCACGTGGAAGA,0.11
10,GTATACACGTGTAGGT,0.08
11,GTGTGCACGTGGGCTT,-0.08
12,AACTTCACGTGGTGGG,0.34
13,GGATACACGTGGGTCG,0.08
14,ATTGCCACGTGTGTTT,0.01
15,TAGATCACGTGCGGTT,0.21
16,CTTCTCACGTGTGGGA,0.24
17,AGATGCACGTGTAGAA,0.06
18,TGGAGCACGTGGTACG,-0.18
19,GGTCGCACGTGCGGGG,-0.03
20,ATAAGCACGTGGCGTA,-0.12
21,TAGGGCACGTGAGTAC,-0.02
22,GGCGGCACGTGTTAGG,0.02
23,TCGGCCACGTGGGCGG,-0.18
24,GGTATCACGTGGTATT,0.07
25,TGGTTCACGTGTTATT,0.3
26,TGCAACACGTGAGGTG,0.19

row,Sequence,relative binding free energy [kcal/mol]
1,TAATGCACGTGGGGGA,-0.27
2,GTTTACACGTGGTATC,0.19
3,ATTATCACGTGGGGCT,-0.11
4,TATGACACGTGGTATA,-0.04
5,CATATCACGTGGATTG,0.07
6,GTTGGCACGTGGTATT,-0.06
7,GGTCGCACGTGTGGAA,0.07
8,GGTATCACGTGCTAGG,-0.03
9,GCAGGCACGTGATGTG,-0.04
10,GCTTGCACGTGAATGT,0.26
11,TCAGGCACGTGTTTAG,-0.12
12,AGTTGCACGTGGTGTT,-0.1
13,CTGAGCACGTGGTGTA,-0.2
14,GGTCTCACGTGGATAT,0.22
15,AGCTTCACGTGTTGTT,0.23
16,ATGTACACGTGTCAGG,-0.08
17,GAGTTCACGTGGGGAC,0.29
18,GATAACACGTGCTTGT,0.13
19,GTAGGCACGTGATGTT,0.02
20,TGGACCACGTGGTTTT,-0.08
21,AGGGACACGTGTTAGT,0.05
22,GTTTACACGTGGGAAT,0.16
